Assay results published in the RNAGym collection of RNA variant scans (doi:10.1073/pnas.2313332121).
Variants at the background level are over-represented here.

B1: TPR 5TU (parent)
chain: GGAUCUUCUCGAUCUAACAAAAAAGACAAAUCUGCCACAAAGCUUGAGAGCAUCUUCGGAUGCAGAGGCGGCAGCCUUCGGUGGCGCGAUAGCGCCAACGUUCUCAACUAUGACACGCAAAACGCGUGCUCCGUUGAAUGGAGUUUAUCAUG

Variants of: B1
Experiment: polymerase ribozyme fitness, log enrichment relative to wild type (log ratio); higher = more active; in vitro selection for triplet polymerase activity
How it was run: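 Mutant libraries were PCR-built and transcribed for each subunit of a heterodimeric triplet polymerase ribozyme and selected for one round in triplicate at −7 °C, frozen, before gel excision of extended constructs and streptavidin-bead capture. Input and output libraries were Illumina-sequenced, keeping genotypes with ≥10 input reads and ≥1 read per output. Fitness is a logarithmic ratio of genotype to wild-type enrichment, in base 2, using inverse-variance-weighted replicate averages.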

Point of comparison: A26G A89U, “polymerase ribozyme fitness (log ratio)” value -4.16. Against it:
- A26C C32G C54U C87G C95U — higher, -3.91
- A26C C35U U44A C57U G58U C85A — lower, ≤ -4.2
- A26C C36A C105G A106G A121U — lower, ≤ -4.2
- A26C C38U C69A U77G G88U — lower, ≤ -4.2
- A26C C38U G86U U144G — higher, -3.75
- A26C C51G G65A G74C G81U C93G A119U C132U G141C — lower, ≤ -4.2
- A26C C54U G59U C79A A106U — lower, ≤ -4.2
- A26C C75U G92C — lower, ≤ -4.2
- A26C C76A — higher, -3.75
- A26C C76U G81U G86A U144C — higher, -3.81
- A26C C79A A115C U139A — lower, ≤ -4.2
- A26C C79U C85G A98G G136A A138C — lower, ≤ -4.2
- A26C C93A — higher, -3.21
- A26C C96U C99G C129A G140C — lower, ≤ -4.2
- A26C C129U U135G G141C — lower, ≤ -4.2
- A26C G42A A107C — lower, ≤ -4.2
- A26C G42A G46C A49G A52C C54U A91U C99U U109G C132U G140U — lower, ≤ -4.2
- A26C G42C C96U C105U — lower, ≤ -4.2
- A26C G46A C51A C85A — lower, ≤ -4.2
- A26C G50C U53G C85A C96U C118G G124C G136C U148A — lower, ≤ -4.2
- A26C G50U C79G C85U C96U U127G U148A — lower, ≤ -4.2
- A26C G65A C79A A89U A97C G117A — lower, ≤ -4.2
- A26C G67C G133A — lower, ≤ -4.2
- A26C G68C U82G C87G — lower, ≤ -4.2
- A26C G70C C99U C105U G136A — lower, ≤ -4.2
- A26C G80A G81U G94A C95G G136U G141C — lower, ≤ -4.2
- A26C G81A C85G C87A G141U C149G — lower, ≤ -4.2
- A26C G83C — higher, -2.82
- A26C G88U G92U G117U — lower, ≤ -4.2
- A26C U31A C76A C87A C118U — lower, ≤ -4.2
- A26C U33A G71C A89C C95G C118U — lower, ≤ -4.2
- A26C U55A C57U U77G G112C A142U G143U U144C — lower, ≤ -4.2
- A26C U77G — lower, ≤ -4.2
- A26C U77G C85A C87A — lower, ≤ -4.2
- A26C U78A A89C C93G A107C A115G U134C — lower, ≤ -4.2
- A26C U78C G88A C108G C114G C149G — lower, ≤ -4.2
- A26G A28C U55A C93A A110G G140U U148A — lower, ≤ -4.2
- A26G A29G C57G G94U — lower, ≤ -4.2
- A26G A30U C57A C95U G136A — lower, ≤ -4.2
- A26G A39G C85U — lower, ≤ -4.2
- A26G A39U G80C A106G C123A G126C G143C — lower, ≤ -4.2
- A26G A40C C63U G80U G92A G126U A142U — lower, ≤ -4.2
- A26G A49C A89U G92A U102G G140U — lower, ≤ -4.2
- A26G A52G U90G U135A G136C — lower, ≤ -4.2
- A26G A64U C75U C85A G140A — lower, ≤ -4.2
- A26G A66G G81U G84U C96U — lower, ≤ -4.2
- A26G A73U G94A — lower, ≤ -4.2
- A26G A147C U148A — lower, ≤ -4.2
- A26G C27U A37G A40U G42U A122G — lower, ≤ -4.2
- A26G C32A C38G G83C C95U A119U — lower, ≤ -4.2
- A26G C32G — lower, ≤ -4.2
- A26G C32G C36A U55A U56A C87U U134A G140A — lower, ≤ -4.2
- A26G C32G G59U G84C G86A A138U — lower, ≤ -4.2
- A26G C36G A49C C85A G124A U139A G143U — lower, ≤ -4.2
- A26G C36U C95A — lower, ≤ -4.2
- A26G C38U U55A C75G C79G A89U C103G U146G — lower, ≤ -4.2
- A26G C57U U78G G86U A107G A120U — lower, ≤ -4.2
- A26G C72A G88A C99U — lower, ≤ -4.2
- A26G C72U U78G C85G — lower, ≤ -4.2
- A26G C79U C93U C95A A97G A122G — lower, ≤ -4.2
- A26G C85U A106C G143C — lower, ≤ -4.2
- A26G G34C U45A C54U C96U G141A — lower, ≤ -4.2
- A26G G48A G50A G68U C69U C108U C125G C132G — lower, ≤ -4.2
- A26G G48C C75A C85G A110G U139C — lower, ≤ -4.2
- A26G G50C G58U C85U — lower, ≤ -4.2
- A26G G50C U55A A64U C96U — lower, ≤ -4.2
- A26G G68C A91U — lower, ≤ -4.2
- A26G G71A C79G A122U C125G — lower, ≤ -4.2
- A26G G124C A138C — lower, ≤ -4.2
- A26G G140A — lower, ≤ -4.2
- A26G U31A C96A — lower, ≤ -4.2
- A26G U33A U134C U139G — lower, ≤ -4.2
- A26G U55A C93U C116G G124A — lower, ≤ -4.2
- A26G U82C C103A C125G — lower, ≤ -4.2
- A26G U90G — lower, ≤ -4.2
- A26G U145A — higher, -3.59
- A26U A28G G42A A49G C69U C96G A113G G143U — lower, ≤ -4.2
- A26U A30C A138C U139A — lower, ≤ -4.2
- A26U A30U A37C U61A A66C G67C C69U C87A C105A C125U — lower, ≤ -4.2
- A26U A30U A91U C116U — lower, ≤ -4.2
- A26U A37G A40G C76G G81A A142C — lower, ≤ -4.2
- A26U A37U G59C A98G G117U — lower, ≤ -4.2
- A26U A39G G48C G71C U77A A89G A110C — lower, ≤ -4.2
- A26U A40G U55G G84U C96U A106G — lower, ≤ -4.2
- A26U A40U A91U A122U — lower, ≤ -4.2
- A26U A40U U45A G50A U55A G92U C132U G143A — lower, ≤ -4.2
- A26U A47C C103A G141U — lower, ≤ -4.2
- A26U A47C G84U A89U C93A C123G U134C — lower, ≤ -4.2
- A26U A47G C54A C95U C96G A98U — lower, ≤ -4.2
- A26U A49C C51U C87A A110G — lower, ≤ -4.2
- A26U A49C U111G — lower, ≤ -4.2
- A26U A49U A91U C116A — lower, ≤ -4.2
- A26U A49U A137G — lower, ≤ -4.2
- A26U A52U U53A C54U C99U A115G C123U U144A — lower, ≤ -4.2
- A26U A64G — lower, ≤ -4.2
- A26U A64U G71A C85A A98C A142U — lower, ≤ -4.2
- A26U A147U — higher, -0.0486
- A26U C27G A40G C51U A52U C76U U82A A91U G94C — lower, ≤ -4.2
- A26U C27U A28U G86U C93U — lower, ≤ -4.2
- A26U C35A — lower, ≤ -4.2
- A26U C35G A60U G68A C76G A119C A137C — lower, ≤ -4.2
- A26U C35G C69A G92A C96A A97G A120C — lower, ≤ -4.2
- A26U C35G G80A U102G C118A G133C — lower, ≤ -4.2
- A26U C35U C85U U90G C93G U148C — lower, ≤ -4.2
- A26U C36U G74U C75G G124A — lower, ≤ -4.2
- A26U C38A C116G U127G — lower, ≤ -4.2
- A26U C38G G92A — lower, ≤ -4.2
- A26U C38U A47G A49U A52G G92U C103A C114A — lower, ≤ -4.2
- A26U C43G C87U — lower, ≤ -4.2
- A26U C43U U53A G100C — lower, ≤ -4.2
- A26U C51A G94C — lower, ≤ -4.2
- A26U C54A C63U A73G C93U — lower, ≤ -4.2
- A26U C54A C93A A138C G141C — lower, ≤ -4.2
- A26U C54A G86U — lower, ≤ -4.2
- A26U C57G A66G U82A G128U G143C C149U — lower, ≤ -4.2
- A26U C57G G58C A91U C129A C132U U151A — lower, ≤ -4.2
- A26U C63U G83A G94C U101A U134A U144G — lower, ≤ -4.2
- A26U C75U — higher, -3.23
- A26U C79G G86U U111C U145G U146C — lower, ≤ -4.2
- A26U C96U — higher, -1.62
- A26U C103A C114U — lower, ≤ -4.2
- A26U C114G — lower, ≤ -4.2
- A26U G34U G59C G62A C75G C93G U104A G152A — lower, ≤ -4.2
- A26U G42A A64G G68A A91G U102G A106G G124C G136U — lower, ≤ -4.2
- A26U G42U U44A U55A G59U C103G A119G A120U G140U — lower, ≤ -4.2
- A26U G46C C54G G62A C95G A122G — lower, ≤ -4.2
- A26U G46C U55A C93U C103A A106G C114A — lower, ≤ -4.2
- A26U G46U — higher, -3.87
- A26U G48C C93A U104A — lower, ≤ -4.2
- A26U G50U C69U G92A A98G — lower, ≤ -4.2
- A26U G59A G83A C87G C93G A97G U104C U139C — lower, ≤ -4.2
- A26U G59C C79A G133U U151G — lower, ≤ -4.2
- A26U G70C G84U A89C A121G G128A — lower, ≤ -4.2
- A26U G81A — higher, -1.66
- A26U G81A G86A A91C C95U C103A U144C A150C — lower, ≤ -4.2
- A26U G84C C85G G126A — lower, ≤ -4.2
- A26U G86A — higher, -2.74
- A26U G88A A89C C95G U101C — lower, ≤ -4.2
- A26U G141U — higher, -1.94
- A26U U31G A106U — lower, ≤ -4.2
- A26U U33G A40G A60U G84C A107G A120U C149U — lower, ≤ -4.2
- A26U U45A G68A C72U C87A — lower, ≤ -4.2
- A26U U53A C54G G94C G140U — lower, ≤ -4.2
- A26U U53A C87A C99A G143C — lower, ≤ -4.2
- A26U U53G G58C G92U C116G A119G — lower, ≤ -4.2
- A26U U53G G83A U144C — lower, ≤ -4.2
- A26U U53G U56G G58C G62A G67A A91G U145C U146G — lower, ≤ -4.2
- A26U U55A A66C C85A C99G A107U G117U — lower, ≤ -4.2
- A26U U55A C72A G81A C131G — lower, ≤ -4.2
- A26U U55A G74A G92A A110U G136A — lower, ≤ -4.2
- A26U U56A — higher, -2.17
- A26U U56A U104C A106C U144C — lower, ≤ -4.2
- A26U U61A C96G A120U — lower, ≤ -4.2
- A26U U101G G117U A137U — lower, ≤ -4.2
- C27A A28C U61G U78A C95G — lower, ≤ -4.2
- C27A A28U A39C C54G C96A — lower, ≤ -4.2
- C27A A29C C79A C87A G128C U151A — lower, ≤ -4.2
- C27A A29G A66C A73U A113U — lower, ≤ -4.2
- C27A A29U A91G A120U — lower, ≤ -4.2
- C27A A39U C87G C149A — lower, ≤ -4.2
- C27A A47C U56C U77A C87A C95A A97C — lower, ≤ -4.2
- C27A A47U A106U U145A — lower, ≤ -4.2
- C27A A52G U55A C75G C95A A98U — lower, ≤ -4.2
- C27A A110G — lower, ≤ -4.2
- C27A C32A G88U C95U U144G — lower, ≤ -4.2
- C27A C32U G50C U55G U139G — lower, ≤ -4.2
